{
  "source": "paper PMC11995724",
  "about": "“Antibiotic target discovery by integrated phenotypic and activity-based profiling of electrophilic fragments” (Cell chemical biology, 2025)",
  "note": "Out of some 3,200 compounds screened, about 110 (3.4%) showed an effect of 50% or more. This is one part of the list.",
  "data": [
    {"system": "T1, V. cholerae SAD30", "T1 construct": "SAD30", "parameters": "species or system S. aureus MSSA476 (TSB) or V. cholerae SAD30 (LB); 384-well bacterial growth screen at 25 uM, OD600 relative to DMSO control", "details": "relative growth, OD600, LB; 25 µM; inhibitor", "units": {"% of control remaining": "%"}, "values": [
      {"smiles": "COc1ccc(C=C(C#N)C(=O)NCc2ccco2)cc1", "note": "[8-J12, 2-cyano-N-[(furan-2-yl)methyl]-3-(4-methoxyphenyl)prop-2-enamide]", "% of control remaining": 65.1937},
      {"smiles": "COc1cc(C=C(C#N)C(=O)Nc2cccc3ncccc23)ccc1O", "note": "[9-F22, 2-cyano-3-(4-hydroxy-3-methoxyphenyl)-N-(quinolin-5-yl)prop-2-enamide]", "% of control remaining": 95.7852},
      {"smiles": "CSc1cccc(-n2c(C)cc(C(=O)CCl)c2C)c1", "note": "[10-J16, 2-chloro-1-{2,5-dimethyl-1-[3-(methylsulfanyl)phenyl]-1H-pyrrol-3-yl}ethan-1-one]", "% of control remaining": 105.825},
      {"smiles": "C=CC(=O)N(CC)c1cccc(C)c1", "note": "[1-A10, N-ethyl-N-(3-methylphenyl)prop-2-enamide]", "% of control remaining": 85.5007},
      {"smiles": "O=C(CCl)NC(c1ccc(F)cc1)c1cccs1", "note": "(stereo not drawn) [4-K18, 2-chloro-N-[(4-fluorophenyl)(thiophen-2-yl)methyl]acetamide]", "% of control remaining": 102.998},
      {"smiles": "CCCCNC(=O)C(C#N)=Cc1ccc(F)cc1F", "note": "[8-H14, N-butyl-2-cyano-3-(2,4-difluorophenyl)prop-2-enamide]", "% of control remaining": 65.1937},
      {"smiles": "C=CC(=O)NC1c2cccc(F)c2CCC1C", "note": "(stereo not drawn) [1-B21, N-(5-fluoro-2-methyl-1,2,3,4-tetrahydronaphthalen-1-yl)prop-2-enamide]", "% of control remaining": 89.8356},
      {"smiles": "CCc1cccc(NC(=O)CCl)c1", "note": "[4-F04, 2-chloro-N-(3-ethylphenyl)acetamide]", "% of control remaining": 110.589},
      {"smiles": "O=C(CCl)Nc1ccc(Cl)c(C(F)(F)F)c1", "note": "[4-I09, 2-chloro-N-[4-chloro-3-(trifluoromethyl)phenyl]acetamide]", "% of control remaining": 86.6077},
      {"smiles": "C=CC(=O)N1CCC(C(=O)NC(C)(c2noc(C)n2)C2CC2)CC1", "note": "(stereo not drawn) [2-B10, N-[1-cyclopropyl-1-(5-methyl-1,2,4-oxadiazol-3-yl)ethyl]-1-(prop-2-enoyl)piperidine-4-carboxamide]", "% of control remaining": 89.4239},
      {"smiles": "CC(Cl)C(=O)N(C)C1CS(=O)(=O)c2ccc(Cl)cc21", "note": "(stereo not drawn) [7-M14, 2-chloro-N-(5-chloro-1,1-dioxo-2,3-dihydro-1lambda6-benzothiophen-3-yl)-N-methylpropanamide]", "% of control remaining": 76.6562},
      {"smiles": "C=CC(=O)NCC1CCCCN1S(C)(=O)=O", "note": "(stereo not drawn) [1-D17, N-[(1-methanesulfonylpiperidin-2-yl)methyl]prop-2-enamide]", "% of control remaining": 107.025},
      {"smiles": "C=CC(=O)Nc1c(C)ccc(Cl)c1CO", "note": "[1-O03, N-[3-chloro-2-(hydroxymethyl)-6-methylphenyl]prop-2-enamide]", "% of control remaining": 100.448},
      {"smiles": "COc1cc(C=C(C#N)C(=O)Nc2ccc(F)cc2)cc(Cl)c1O", "note": "[8-H07, 3-(3-chloro-4-hydroxy-5-methoxyphenyl)-2-cyano-N-(4-fluorophenyl)prop-2-enamide]", "% of control remaining": 73.7593},
      {"smiles": "C=CC(=O)Nc1cnn(CCN2CCCC2=O)c1", "note": "[3-M18, N-{1-[2-(2-oxopyrrolidin-1-yl)ethyl]-1H-pyrazol-4-yl}prop-2-enamide]", "% of control remaining": 97.2064},
      {"smiles": "COc1ccc(-c2nn(-c3ccccc3)cc2C=C(C#N)C(N)=O)cc1", "note": "[8-L16, 2-cyano-3-[3-(4-methoxyphenyl)-1-phenyl-1H-pyrazol-4-yl]prop-2-enamide]", "% of control remaining": 71.7199},
      {"smiles": "C=CC(=O)NCc1ccccc1S(=O)(=O)N1CCCC1", "note": "[2-L17, N-{[2-(pyrrolidine-1-sulfonyl)phenyl]methyl}prop-2-enamide]", "% of control remaining": 85.564},
      {"smiles": "CCc1cccc2c(C(=O)CCl)c[nH]c12", "note": "[10-C12, 2-chloro-1-(7-ethyl-1H-indol-3-yl)ethan-1-one]", "% of control remaining": 24.3133},
      {"smiles": "Cc1cc(C)c(-c2csc(NC(=O)CCl)n2)cc1C", "note": "[4-G17, 2-chloro-N-[4-(2,4,5-trimethylphenyl)-1,3-thiazol-2-yl]acetamide]", "% of control remaining": 91.7835},
      {"smiles": "N#CC(=Cc1cccc2ccccc12)C(=O)NCc1ccco1", "note": "[8-N15, 2-cyano-N-[(furan-2-yl)methyl]-3-(naphthalen-1-yl)prop-2-enamide]", "% of control remaining": 75.3909},
      {"smiles": "C=CC(=O)NCCc1ccc(S(N)(=O)=O)cc1", "note": "[2-B13, N-[2-(4-sulfamoylphenyl)ethyl]prop-2-enamide]", "% of control remaining": 91.1223},
      {"smiles": "O=C(CCl)NC1CCCCCC1", "note": "[5-H16, 2-chloro-N-cycloheptylacetamide]", "% of control remaining": 96.6691},
      {"smiles": "C=CC(=O)N1CCC(C(=O)Nc2ccc(N)c([N+](=O)[O-])c2)CC1", "note": "[3-E20, N-(4-amino-3-nitrophenyl)-1-(prop-2-enoyl)piperidine-4-carboxamide]", "% of control remaining": 94.5598},
      {"smiles": "O=C(CCl)Nc1ccc2c(c1)oc1ccccc12", "note": "[6-A13, 2-chloro-N-{8-oxatricyclo[7.4.0.0,2,7]trideca-1(9),2(7),3,5,10,12-hexaen-5-yl}acetamide]", "% of control remaining": 88.8805},
      {"smiles": "Cc1ccc(S(=O)(=O)N2CCSSCC2)c(F)c1", "note": "[10-L09, 5-(2-fluoro-4-methylbenzenesulfonyl)-1,2,5-dithiazepane]", "% of control remaining": 81.3559},
      {"smiles": "O=C(CCl)NCC(=O)Nc1ccc(F)c(F)c1", "note": "[4-L16, 2-chloro-N-{[(3,4-difluorophenyl)carbamoyl]methyl}acetamide]", "% of control remaining": 105.24},
      {"smiles": "O=C(CCl)NCCc1ccc(Cl)cc1", "note": "[4-O12, 2-chloro-N-[2-(4-chlorophenyl)ethyl]acetamide]", "% of control remaining": 96.4417},
      {"smiles": "CC1CCCCC1NC(=O)C(C#N)=CC=Cc1ccccc1[N+](=O)[O-]", "note": "(stereo not drawn) [8-F12, 2-cyano-N-(2-methylcyclohexyl)-5-(2-nitrophenyl)penta-2,4-dienamide]", "% of control remaining": 66.5534},
      {"smiles": "CC(=O)Nc1ccc(C(=O)CCl)cc1", "note": "[10-O12, N-[4-(2-chloroacetyl)phenyl]acetamide]", "% of control remaining": 74.4983},
      {"smiles": "CC(Cl)C(=O)N(C)C(C)c1ccccc1N1CCCS1(=O)=O", "note": "(stereo not drawn) [6-D05, 2-chloro-N-{1-[2-(1,1-dioxo-1lambda6,2-thiazolidin-2-yl)phenyl]ethyl}-N-methylpropanamide]", "% of control remaining": 91.1556}
    ]}
  ]
}
